Data taken from article PMC4336329 (PLoS ONE, 2015).
Hit rate of the full screen: of about 310,000 compounds, about 2,200 (0.71%) showed an effect of 50% or more. Effects have a minus sign here. The list shows a part of the results.

biological target: human ether-à-go-go-related gene (hERG) potassium channel (human, UniProt Q12809); test: primary screen, population patch clamp on CHO cells stably expressing hERG
Sequence (Q12809 whole entry, looked up): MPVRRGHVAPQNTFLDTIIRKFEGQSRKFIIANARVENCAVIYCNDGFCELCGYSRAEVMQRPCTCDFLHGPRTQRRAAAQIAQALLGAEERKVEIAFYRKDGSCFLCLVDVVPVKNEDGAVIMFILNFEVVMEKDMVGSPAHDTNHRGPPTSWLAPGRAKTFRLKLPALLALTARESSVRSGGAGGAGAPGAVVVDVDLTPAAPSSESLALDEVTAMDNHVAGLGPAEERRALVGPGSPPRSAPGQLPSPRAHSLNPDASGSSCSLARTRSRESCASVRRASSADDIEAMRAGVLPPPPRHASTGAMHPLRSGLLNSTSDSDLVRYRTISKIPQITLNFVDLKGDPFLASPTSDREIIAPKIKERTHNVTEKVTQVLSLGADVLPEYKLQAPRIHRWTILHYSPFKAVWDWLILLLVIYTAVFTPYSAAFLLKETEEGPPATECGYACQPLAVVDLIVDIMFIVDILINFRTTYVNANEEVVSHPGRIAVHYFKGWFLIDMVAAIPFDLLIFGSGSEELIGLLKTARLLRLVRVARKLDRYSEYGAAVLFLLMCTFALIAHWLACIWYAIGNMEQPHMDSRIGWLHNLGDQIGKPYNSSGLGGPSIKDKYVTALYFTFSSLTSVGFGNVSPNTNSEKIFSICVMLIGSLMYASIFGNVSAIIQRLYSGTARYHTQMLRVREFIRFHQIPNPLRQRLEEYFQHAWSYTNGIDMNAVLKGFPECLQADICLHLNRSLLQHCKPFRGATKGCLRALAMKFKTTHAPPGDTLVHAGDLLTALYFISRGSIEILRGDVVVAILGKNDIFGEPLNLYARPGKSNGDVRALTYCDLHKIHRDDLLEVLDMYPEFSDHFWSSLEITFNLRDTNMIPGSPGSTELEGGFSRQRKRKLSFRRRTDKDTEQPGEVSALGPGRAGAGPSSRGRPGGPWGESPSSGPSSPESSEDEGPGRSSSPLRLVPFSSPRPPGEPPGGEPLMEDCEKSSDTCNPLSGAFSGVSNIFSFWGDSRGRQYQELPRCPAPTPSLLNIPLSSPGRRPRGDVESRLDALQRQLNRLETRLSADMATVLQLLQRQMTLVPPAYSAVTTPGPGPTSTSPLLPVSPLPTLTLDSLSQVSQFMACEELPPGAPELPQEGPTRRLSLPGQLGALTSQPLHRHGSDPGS

| SMILES | hERG current change (%, negative = inhibition) at 1uM [%] |
| --- | --- |
| CC(=O)c1cc2c(cc1NC(=O)CN1CCC(Cc3ccccc3)CC1)OCO2 | 6.87 |
| CCN(CC)CCCN(Cc1cc2cc3c(cc2[nH]c1=O)OCO3)C(=O)Nc1ccccc1OC | 7.28 |
| COc1ccc(CCNC(=O)c2c(O)c3ccccc3n(C)c2=O)cc1 | 10.5 |
| CSc1ccccc1C(=O)NCCCn1ccnc1 | 16.6 |
| COc1cc(S(=O)(=O)N(C)C)ccc1Br | 6.22 |
| Cc1[nH]c2ccccc2c1CCNC(=O)c1ccc2c(c1[N+](=O)[O-])C(=O)c1ccccc1C2=O | 15.4 |
| CN(C)CCNC(=O)C(=O)NCC1CCCN1S(=O)(=O)c1cccs1 (centres unmarked) | 15.4 |
| CC(NC(=S)NC1CCCCC1)C(c1cccs1)N1CCOCC1 (centres unmarked) | 12 |
| COCCCn1c(C(=O)N2CCOCC2)cc2c(=O)n3ccccc3nc21 | 3.13 |
| O=C(Nc1ccccc1C(=O)N1CCCCCC1)c1cccc([N+](=O)[O-])c1 | 6.47 |
| O=C(OCC(=O)c1cccs1)c1ccc([N+](=O)[O-])o1 | 10.3 |
| CCC(C)[C@H](N)c1cn([C@@H](CCCCN)C(=O)N2CCNCC2)nn1.Cl (some centres unmarked) | 14.1 |
| CCOc1ccc(S(=O)(=O)Nc2ccc(S(=O)(=O)Nc3cc(OC)ccc3OC)cc2)cc1 | 9.61 |
| CCOc1cc(-c2noc(CCC(=O)N3CCOCC3)n2)ccc1OC | 10.3 |
| COc1cccc(-c2nnc(Nc3nc4c(F)cccc4s3)o2)c1 | 12.4 |
| Cc1cc(NC(=O)c2cc(C)on2)n(-c2ccccc2)n1 | 1.51 |
| COc1ccc(N2Cc3ccccc3/C2=N\C(=O)Nc2ccccc2)cc1 | 13.2 |
| Cc1nc(-c2ccc(Cl)cc2)sc1C1(C)CC(c2cccnc2)=NO1 (centres unmarked) | 0.743 |
| Cc1ccc(C(=O)NCc2ccco2)cc1S(=O)(=O)N1CCCC1 | 5.92 |
| O=c1c2ccccc2nc(Cc2ccccc2)n1-c1ccccc1O | 13.2 |
| Cc1c(Br)c([N+](=O)[O-])nn1CCCC(=O)Nc1sc2c(c1C#N)CCC2 | -19.6 |
| O=C(O)c1ccc(C=C(c2nc3ccccc3s2)c2nc3ccccc3s2)cc1 | 13 |
| CCOC(=O)C1(Cc2cccc(OC)c2)CCCN(C(=O)c2ccccc2C)C1 (centres unmarked) | -25.7 |

| SMILES | hERG current change (%, negative = inhibition) at 1uM [%] |
| --- | --- |
| Cc1ccc(Nc2nc3ccccc3c(=O)[nH]2)cc1C | 13.2 |
| O=C1c2ccccc2C(=O)N1CCc1csc(-c2cccc(F)c2)n1 | -3.24 |
| COc1ccc2[nH]c3c(c2c1)CCNC3C.Cl (centres unmarked) | 17.3 |
| COc1cc(CN2CCN(C(=O)c3ccccc3F)CC2)cc(OC)c1OC.O=C(O)C(=O)O | 8.8 |
| CC1CCC2(CC1)NC(=O)N(NC(=O)CCl)C2=O (centres unmarked) | 6.31 |
| CCN(CC)C(=O)CC(c1ccc(F)cc1)c1ccco1 (centres unmarked) | 8.39 |
| Cc1nc2n(n1)CC(O)CS2 (centres unmarked) | 9.54 |
| CCOC(=O)Cn1c(-c2ccccc2)ccc(C#N)c1=O | 12.8 |
| Fc1cccc(CNc2ncnc3cc(Cl)ccc23)c1F | 3.49 |
| CCOc1ccccc1NC(=O)C(C)N1C(=O)c2ccccc2S1(=O)=O (centres unmarked) | 3.71 |
| Cc1cc(C)c(S(=O)(=O)NCCCN2CCOCC2)cc1Br | 8.21 |
| O=c1cc(O)c2ccc(O)cc2o1 | 16.5 |
| O=C(CCCN=C1NS(=O)(=O)c2ccccc21)OCC(=O)c1ccc(Br)cc1 | 4.3 |
| COc1ccc(C)cc1S(=O)(=O)N(C)CC(=O)NCc1ccccn1 | 15 |
| CCCNC(=O)Nc1ccccc1SC | 7.96 |
| O=S(=O)(NCc1ccccc1)c1ccc(S(=O)(=O)N2CCCCC2)cc1 | -0.125 |
| O=C(O)/C=C\C(=O)N1CCc2ccccc21 | 16.9 |
| CC1CCCC(NC(=O)c2ccc3c(c2)NC(=O)CS3)C1C (centres unmarked) | 10.6 |
| CC1CCN(c2nc3nonc3nc2Nc2ccc(F)cc2)CC1 | -10.8 |
| COc1ccc(CC(=O)NC(C)CCc2ccccc2)cc1 (centres unmarked) | 14 |
| Cc1cccc(OP(=O)(Nc2ccc(F)cc2)Oc2cccc(C)c2)c1 | 9.75 |
| CC(=O)c1c(N)n(C)c(=O)n(C)c1=O | 3.56 |
| O=C(/C=C/c1cc(Br)ccc1F)Nc1cccnc1 | 15 |

| SMILES | hERG current change (%, negative = inhibition) at 1uM [%] |
| --- | --- |
| COc1ccc(-n2cc(-c3ccccc3)[n+]3c2CCCCC3)cc1.[Br-] | -0.434 |
| CCOC(=O)Nc1ccc2c(c1)N(C(=O)N(C)C)c1ccccc1CC2 | 0.0121 |
| CCOc1ccccc1N1CCN(C(=O)c2c(Cl)cnn2C)CC1 | 6.85 |
| CCc1cccc(CC)c1NC(=S)Nc1ccc2cn[nH]c2c1 | 4.51 |
| NC(=O)NC(=O)COC(=O)c1ccc2c(c1)C(=O)N(Cc1ccccc1)C2=O | 14.7 |
| COc1ccccc1NC(=O)c1cccnc1 | 12 |
| Cc1ccc2nc(S(=O)(=O)O)[nH]c2c1 | -5.26 |
| CN(C)c1ccc(C2CC(=O)OC3=C2C(=O)CC(C)(C)C3)cc1 (centres unmarked) | 17.4 |
| N#Cc1ccccc1OCCn1cncn1 | 17.1 |
| O=C(O)c1ccc(N=c2oc3cc(O)ccc3cc2C(=O)NCc2ccccc2)cc1 | 7.23 |
| Cc1c(C)c2ccc(OCC(=O)Nc3ccc(S(N)(=O)=O)cc3)c(C)c2oc1=O | 20.1 |
| O=C(CN1CCOCC1)Nc1scc(-c2ccccc2)c1C(=O)N1CCOCC1 | 1.74 |
| O=C(Nc1ccccc1)c1ccc(F)c(S(=O)(=O)N2CCOCC2)c1 | 13.9 |
| CC(C)(C)C(=O)NC(=S)NCCc1ccccc1 | 6.02 |
| CN1CCN(/N=C/c2nc(-c3cccc([N+](=O)[O-])c3)n3ccccc23)CC1 | -1.73 |
| COc1cc(OC)cc(C(=O)N2CCN(c3ccccc3F)CC2)c1 | 4.21 |
| N#Cc1c(-c2ccco2)nc(SCc2ccc(F)cc2)[nH]c1=O | -3.33 |
| O=C(Cn1ccc(C(F)(F)F)n1)NNC(=O)c1cccnc1 | 2.73 |
| CCSC(=O)N(CC)CC(=O)Nc1c(CC)cccc1CC | 8.22 |
| O=C(CSc1nnc(-c2ccncc2)n1CC1CCCO1)Nc1ccccc1Cl (centres unmarked) | -11.7 |
| Cc1ccc(S(=O)(=O)CCSc2cccc(C(=O)O)c2)cc1 | 16 |
| O=C(c1cccc(S(=O)(=O)N2CCOCC2)c1)N1CCN(c2ccccc2)CC1 | 5.7 |
| COC(=O)c1cc(CNC(=O)c2cccc(Cl)c2Cl)ccc1OC | -7.93 |

| SMILES | hERG current change (%, negative = inhibition) at 1uM [%] |
| --- | --- |
| O=c1c2ccccc2nc(/C=C/c2cccnc2)n1CCc1ccccc1 | -0.034 |
| COc1ccccc1CCCNC(=O)C1CCC(=O)N(CCN2CCOCC2)C1 (centres unmarked) | 2.42 |
| ClC(/C=N/n1cnnc1)=C/c1ccccc1 | 12.5 |
| CC1(C)C2CCC1(CS(=O)(=O)N1CCN(c3ccccc3F)CC1)C(=O)C2 (centres unmarked) | 19.9 |
| COc1ccc(CNC(=O)C(=O)NCC2CCCN2S(=O)(=O)c2ccccc2)cc1 (centres unmarked) | -5.82 |
| CCN(CC)C(=S)NC(=O)c1ccc(F)cc1 | 7.73 |
| CCOC(=O)C1CCN(c2c(NCc3ccc(C(=O)Nc4ccc(C)cc4)cc3)c(=O)c2=O)CC1 | 11.4 |
| COCCNC(=O)C1CCC(CNS(=O)(=O)c2c(C)cc(C)cc2C)CC1 (centres unmarked) | 7.32 |
| CN1CCN(c2nc3c(c(=O)[nH]c(=O)n3C)n2CCCSc2ncccn2)CC1 | 1.05 |
| Nc1ccccc1OCP(=O)(c1ccccc1)c1ccccc1 | 6.57 |
| CC(C)(C)NC(=O)COC(=O)c1ccc2c(c1)C(=O)N(Cc1ccco1)C2=O | 12.8 |
| Cc1ccc(C(=O)N/C(=C\c2cccc([N+](=O)[O-])c2)C(=O)NCc2ccncc2)cc1 | -65.3 |
| CCOC(=O)c1ccc(NC(=O)CCn2nnc3ccccc32)cc1 | 7.89 |
| CC1(NC(=O)Cc2ccc(Cl)c(Cl)c2)CCS(=O)(=O)C1 (centres unmarked) | 8.08 |
| O=C1CCCC/C1=C\Nc1ccc(Cl)cn1 | 18.8 |
| Cc1ccc2c(c1)[nH]c1c(N3CCN(Cc4ccccc4)CC3)ncnc12 | 11.6 |
| O=S(=O)(c1cccc2ccccc12)N1CCSC1 | 3.27 |
| COc1ccc(CNC(=O)CS(=O)Cc2nc(-c3ccccc3C)oc2C)cc1 (centres unmarked) | 1.07 |
| Cc1cccc(CN2CCC(CNC(=O)Nc3ccc(F)c(Cl)c3)CC2)c1 | -13 |
| Cc1ccc(S(=O)(=O)N(C)c2ccc(OC(C)C(=O)N3CCCC3)cc2)cc1C (centres unmarked) | -5.63 |
| Cc1ccc2c(c1)C(=C(C#N)C#N)C(=O)N2CCN1CCOCC1 | 12.1 |
| O=C(CN1C(=O)NC2(CCCCC2)C1=O)Nc1ccc(N2CCOCC2)cc1 | 21.8 |
| Cc1ccc(NC(=O)COC(=O)CCc2ccc(S(=O)(=O)N3CCOCC3)cc2)cc1F | 7.33 |
